Source: the GPR68 mutational scans of Howard et al. (2025)
Scores with a large standard error are left out. The source holds two more conditions with little spread; they are left out. Names with del lack the residues named; names with ins carry added residues between the positions named. For some assays here: The concentration of ogerin is not given here.

B1: GPR68, Q15743 (parent)
chain: MGNITADNSSMSCTIDHTIHQTLAPVVYVTVLVVGFPANCLSLYFGYLQIKARNELGVYLCNLTVADLFYICSLPFWLQYVLQHDNWSHGDLSCQVCGILLYENIYISVGFLCCISVDRYLAVAHPFRFHQFRTLKAAVGVSVVIWAKELLTSIYFLMHEEVIEDENQHRVCFEHYPIQAWQRAINYYRFLVGFLFPICLLLASYQGILRAVRRSHGTQKSRKDQIQRLVLSTVVIFLACFLPYHVLLLVRSVWEASCDFAKGVFNAYHFSLLLTSFNCVADPVLYCFVSETTHRDLARLRGACLAFLTCSRTGRAREAYPLGAPEASGKSGAQGEEPELLTKLHPAFQTPNSPGSGGFPTGRLA

Columns and labels:
[1] = variants of: B1; assay: cAMP reporter score (Enrich2 score, wild type = 0); higher = more signal; HEK293T, FACS bins
[2] = variants of: B1; assay: surface expression score (Enrich2 score, wild type = 0); higher = more signal; HEK293T, FACS bins

Row | Variant | cAMP reporter score ([1]; pH 5.5) | cAMP reporter score ([1]; pH 6) | cAMP reporter score ([1]; pH 6, modulator: ogerin) | cAMP reporter score ([1]; pH 6.5, modulator: ogerin) | surface expression score [2]
1 | MGNITADNSSMSCTIDHTIHQTLAPVVYVTVLVVGFPANCLSLYFGYLQIKARNELGVYLCNLTVADLFYICSLPFWLQYVLQHDNWSHGDLSCQVCGILLYENIYISVGFLCCISVDRYLAVAHPFRFHQFRTLKAAVGVSVVIWAKELLTSIYFLMHEEVIEDENQHRVCFEHYPIQAWQRAINYYRFLVGFLFPICLLLASYQGILRAVRRSHGTQKSRKDQIQRLVLSTVVIFLACFLPYHVLLLVRSVWEASCDFAKGVFNAYHFSLLLTSFNCVADPVLYCFVSETTHRDLARLRGACLAFLTCSRTGRAREAYPLGAPEASGKSGAQGEEPELLTKLHPAFQTPNSPGSGGYPTGRLA [F359Y] | -0.604 | 1.44 | -0.564 |  | 
2 | F359_P360insGS | 0.149 | 0.533 | 0.302 | 0.827 | 0.132
3 | F359_P360insGSG | 1.33 | 1.32 | 1.51 | 1.17 | 1.85
4 | F359_T361del | 0.957 | 0.216 | 1.77 | 1.86 | 1.04
5 | P360_G362del | 0.475 |  | 1.1 | 0.629 | 0.595
6 | P360_T361insG | -0.164 | -0.612 | -0.314 | -0.202 | 0.457
7 | T361_G362del | 0.497 | -0.122 | 0.948 | 0.536 | 0.821
8 | T361_G362insG | -0.042 | -0.325 | 0.27 | -0.359 | 0.219
9 | T361_G362insGS | 0.306 | 1.35 | 0.284 | 0.526 | -0.443
10 | T361del | 0.691 |  | 0.663 | 0.958 | 1.01
11 | MGNITADNSSMSCTIDHTIHQTLAPVVYVTVLVVGFPANCLSLYFGYLQIKARNELGVYLCNLTVADLFYICSLPFWLQYVLQHDNWSHGDLSCQVCGILLYENIYISVGFLCCISVDRYLAVAHPFRFHQFRTLKAAVGVSVVIWAKELLTSIYFLMHEEVIEDENQHRVCFEHYPIQAWQRAINYYRFLVGFLFPICLLLASYQGILRAVRRSHGTQKSRKDQIQRLVLSTVVIFLACFLPYHVLLLVRSVWEASCDFAKGVFNAYHFSLLLTSFNCVADPVLYCFVSETTHRDLARLRGACLAFLTCSRTGRAREAYPLGAPEASGKSGAQGEEPELLTKLHPAFQTPNSPGSGGFPTARLA [G362A] | 0.99 | 0.446 | 0.692 | 0.419 | 0.795
12 | MGNITADNSSMSCTIDHTIHQTLAPVVYVTVLVVGFPANCLSLYFGYLQIKARNELGVYLCNLTVADLFYICSLPFWLQYVLQHDNWSHGDLSCQVCGILLYENIYISVGFLCCISVDRYLAVAHPFRFHQFRTLKAAVGVSVVIWAKELLTSIYFLMHEEVIEDENQHRVCFEHYPIQAWQRAINYYRFLVGFLFPICLLLASYQGILRAVRRSHGTQKSRKDQIQRLVLSTVVIFLACFLPYHVLLLVRSVWEASCDFAKGVFNAYHFSLLLTSFNCVADPVLYCFVSETTHRDLARLRGACLAFLTCSRTGRAREAYPLGAPEASGKSGAQGEEPELLTKLHPAFQTPNSPGSGGFPTCRLA [G362C] | 0.619 |  | 0.909 | 1.04 | 0.515
13 | MGNITADNSSMSCTIDHTIHQTLAPVVYVTVLVVGFPANCLSLYFGYLQIKARNELGVYLCNLTVADLFYICSLPFWLQYVLQHDNWSHGDLSCQVCGILLYENIYISVGFLCCISVDRYLAVAHPFRFHQFRTLKAAVGVSVVIWAKELLTSIYFLMHEEVIEDENQHRVCFEHYPIQAWQRAINYYRFLVGFLFPICLLLASYQGILRAVRRSHGTQKSRKDQIQRLVLSTVVIFLACFLPYHVLLLVRSVWEASCDFAKGVFNAYHFSLLLTSFNCVADPVLYCFVSETTHRDLARLRGACLAFLTCSRTGRAREAYPLGAPEASGKSGAQGEEPELLTKLHPAFQTPNSPGSGGFPTDRLA [G362D] | -0.258 | 0.657 | 0.563 |  | 0.777
